Among all 390,000 compounds or so, about 4,700 (1.2%) were called active. The inconclusive results got no clear call from the source; some entries with a clear call stand among them for comparison. The call rests on the fitted dose curve; in most records, active means well fitted inhibition curve with a large enough effect; inconclusive means small, poorly fitted or top-dose-only effect, or another doubt; inactive means no such curve, though single readings can be large or run the other way. Potencies of inconclusive entries are doubtful fits and often do not repeat.
These compounds were tested against DNA polymerase eta (Homo sapiens) (UniProt Q9Y253) (assay: qHTS for Inhibitors of Polymerase Eta). Details: recombinant Pol eta, fluorescent DNA replication assay; series mostly up to 114 µM; activity change, negative = inhibition: at the top concentration.
Outline: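 Pol eta (10 nM) was preincubated with compounds for 15 min at room temperature, after which fluorescent replication substrate (50 nM final) was added to start the reaction. Fluorescence was read kinetically at 0 and 10 min.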
On the % scale 0 is the no-effect control and ±100 the full control effect; potency means the concentration at half of the fitted maximal effect; tags describe the fitted curve by direction and shape.

Chain of UniProt Q9Y253 (Q9Y253 whole entry, looked up): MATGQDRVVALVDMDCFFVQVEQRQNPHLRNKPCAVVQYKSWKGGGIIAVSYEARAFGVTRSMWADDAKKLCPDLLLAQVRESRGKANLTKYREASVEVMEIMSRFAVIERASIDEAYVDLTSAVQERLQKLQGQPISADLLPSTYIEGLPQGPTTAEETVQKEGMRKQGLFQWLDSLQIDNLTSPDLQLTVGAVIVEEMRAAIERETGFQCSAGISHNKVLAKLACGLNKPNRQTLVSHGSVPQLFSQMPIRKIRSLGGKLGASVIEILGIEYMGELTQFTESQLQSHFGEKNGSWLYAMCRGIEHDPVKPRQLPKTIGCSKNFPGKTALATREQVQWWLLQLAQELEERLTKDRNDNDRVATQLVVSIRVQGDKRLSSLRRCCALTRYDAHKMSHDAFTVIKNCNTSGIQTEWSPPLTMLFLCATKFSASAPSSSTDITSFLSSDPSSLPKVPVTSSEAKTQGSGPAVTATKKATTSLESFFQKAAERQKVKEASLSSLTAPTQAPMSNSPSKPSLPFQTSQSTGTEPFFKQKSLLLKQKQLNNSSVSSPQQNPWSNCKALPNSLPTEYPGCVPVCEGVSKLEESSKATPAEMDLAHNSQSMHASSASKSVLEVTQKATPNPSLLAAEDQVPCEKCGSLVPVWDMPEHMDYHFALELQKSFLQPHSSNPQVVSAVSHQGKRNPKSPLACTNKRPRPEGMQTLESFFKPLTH

Row | SMILES | Potency | activity change, negative = inhibition
1 | O=c1nc(/C=C/c2ccc(O)c(O)c2)oc2ccccc12 | inconclusive: 15.8 µM [inhibitor, full curve, poor fit] | –
2 | CC(=O)Nc1ccc(S(=O)(=O)NC2(C(F)(F)F)C(=O)Nc3c2c(=O)[nH]c(=O)n3-c2ccc(C)cc2)cc1 (stereo not drawn) | – | inactive: -4.17%
3 | COC(=O)c1cc(NC(=S)NCc2ccc(Cl)cc2)cc(C(=O)OC)c1 | inconclusive: 22.4 µM [inhibitor, partial curve, poor fit] | –
4 | CN(C)c1ccc(C(=S)NCc2ccco2)cc1 | inconclusive: 25.1 µM [inhibitor, partial curve, poor fit] | –
5 | O=c1[nH]c(/C=C/c2ccc([N+](=O)[O-])cc2)c([N+](=O)[O-])c(=O)[nH]1 | active: 44.7 µM | –
6 | COc1ccc(-c2cc3nc4c(c(=O)n3[nH]2)CCC4)cc1 | inconclusive: 25.1 µM [inhibitor, single point] | –
7 | Cc1ccc(CNC(=O)/C=C/c2ccc(Br)o2)cc1 | – | inactive: -7.19%
8 | CC(NC(=O)COC(=O)C1CCCCC1)c1ccccc1 (stereo not drawn) | – | inactive: -14.5%
9 | Cc1nc2nc(CNC(=O)OC(C)(C)C)nn2c(C)c1CCC(=O)NCc1ccccc1Cl | – | inactive: -3.77%
10 | C=C1C(=O)OC2C1CCC(C)C1C=CC(=O)C12C (stereo not drawn) | active: 14.1 µM | –
11 | Cc1c(CCC(=O)N[C@@H](CC(C)C)C(=O)O)c(=O)oc2c(C)c3oc4c(c3cc12)CCCC4 | – | inactive: -9.53%
12 | Cc1nc(S/C(=C/c2ccc(OCc3ccc(C(=O)O)cc3)cc2)C(=O)O)n[nH]1 | active: 20 µM | –
13 | Cc1cc(SCC(=O)N/N=C/c2ccc(C(=O)O)cc2)nc2ccccc12 | inconclusive: 0.708 µM [inhibitor, full curve, poor fit] | –
14 | Cc1ccc(-n2c(=O)c3c4c(sc3n(CC(=O)C(C)(C)C)c2=O)CCCCC4)cc1C | – | inactive: -7.61%
15 | O=C(COC(=O)c1ccc(O)cc1O)Nc1cccc2ccccc12 | inconclusive: 35.5 µM [inhibitor, partial curve, poor fit] | –
16 | Cc1ccc(NC(=O)Cn2cncc2-c2ccc([N+](=O)[O-])cc2)cc1C | inconclusive: 11.2 µM [inhibitor, partial curve] | –
17 | COc1ccc(N2CC(C(=O)Nc3nnc(SCc4cccnc4)s3)CC2=O)cc1 (stereo not drawn) | inconclusive: 31.6 µM [inhibitor, full curve] | –
18 | C=CCN1C=C2C(=O)C(C)(OC(=O)CCC(=O)OC)C(=O)C(Br)=C2C=C1c1ccc(OC)cc1 (stereo not drawn) | inconclusive: 79.4 µM [inhibitor, partial curve] | –
19 | Cc1ccc(OCCCN(C)C)c(Br)c1 | inconclusive: 89.1 µM [inhibitor, partial curve, poor fit] | –
20 | C=CCn1c(COc2ccc(OC)cc2)nc2ccccc21 | inconclusive: 79.4 µM [inhibitor, partial curve, poor fit] | –
21 | C[C@H](NC(=O)c1ccco1)C(=O)Nc1nc(-c2ccccn2)cs1 | inconclusive: 28.2 µM [inhibitor, partial curve, poor fit] | –
22 | COc1ccc(CN([C@H](CO)CC(C)C)S(=O)(=O)N(Cc2ccccc2)[C@H](CO)CC(C)C)cc1 | inconclusive: 79.4 µM [inhibitor, partial curve, poor fit] | –
23 | CCc1ccc(NC(=O)CSC2=Nc3ccccc3C3=NC(CCC(=O)NCc4cccs4)C(=O)N23)cc1 (stereo not drawn) | – | inactive: -4.05%

Row | SMILES | Potency | activity change, negative = inhibition
24 | CCCc1nn2c(=O)cc(COC(=O)c3ccc(NC(=O)c4cccs4)cc3)nc2s1 | – | inactive: 6.24%
25 | CCC(C)Sc1ccc([C@H]2N[C@@](C)(C(=O)OC)[C@H]3C(=O)N(C)C(=O)[C@@H]23)cc1 (stereo partly drawn) | – | inactive: -15.4%
26 | Nc1nn2c(-c3ccccc3)cc(=O)[nH]c2c1N=Nc1ccc(O)cc1 | inconclusive: 17.8 µM [inhibitor, full curve, poor fit] | –
27 | Cc1cccc(NS(=O)(=O)c2ccc(C(=O)N3CCCCCC3)cc2)c1C | – | inactive: -1.2%
28 | Cc1csc(NC(=O)c2cnc3ccccc3n2)n1 | – | inactive: -20.6%
29 | Cc1ccc(S(=O)(=O)N2CC3(O)CN(C(=O)OC(C)C)N(C(=O)OC(C)C)CC3(OC(=O)NCc3ccccc3)C2)cc1 (stereo not drawn) | inconclusive: 39.8 µM [inhibitor, full curve, poor fit] | –
30 | COc1ccc2oc(-c3ccccc3)c(C(=O)N3CCOCC3)c2c1 | inconclusive: 89.1 µM [inhibitor, partial curve, poor fit] | –
31 | Cc1ccc(C(=O)OCc2nnc(-c3ccccc3)o2)s1 | – | inactive: -8.48%
32 | O=c1c(Cl)c(N/N=C/c2ccc(Cl)cc2)cnn1-c1ccccc1 | inconclusive: 50.1 µM [inhibitor, partial curve] | –
33 | COc1ccc(/C=N/NC(=O)c2cc(OC)c(OC)c(OC)c2)cc1CN1CCc2cc(OC)c(OC)cc2C1C (stereo not drawn) | inconclusive: 1.12 µM [inhibitor, full curve, poor fit] | –
34 | COc1ccc(CCNc2nc3c(c(=O)n(C)c(=O)n3C)n2Cc2ccc(F)cc2)cc1OC | – | inactive: -20.7%
35 | CCn1c(CSc2nccn2C)nc2cc(C(=O)O)ccc21 | inconclusive: 31.6 µM [inhibitor, partial curve] | –
36 | CCOc1ccc(NC(=O)CSc2nc(C3CC3)nc3ccccc23)cc1 | – | inactive: 1.11%
37 | Cc1cc([N+](=O)[O-])c(C)cc1-c1ccc(/C=N/n2cnnc2)o1 | inconclusive: 63.1 µM [inhibitor, partial curve, poor fit] | –
38 | N#CC1=C(N)Oc2[nH]c(=S)[nH]c(=O)c2C12C(=O)Nc1ccccc12 (stereo not drawn) | inconclusive: 39.8 µM [inhibitor, full curve] | –
39 | O=C(CCl)N1CCN(C(=O)C2COc3ccccc3O2)CC1 (stereo not drawn) | inconclusive: 17.8 µM [inhibitor, full curve] | –
40 | Cc1ccc(NC(=O)c2cc(-c3ccc(C)c(C)c3O)n[nH]2)cc1C | – | inactive: -0.315%
41 | COCCOC(=O)c1c(NC(=O)CN2CCc3ccccc32)sc(C(N)=O)c1C | inconclusive: 15.8 µM [inhibitor, full curve, poor fit] | –
42 | O=C(CCCn1c(=O)[nH]c2cc(Cl)ccc2c1=O)NC1CCCCCC1 | – | inactive: -2.69%
43 | C=CCn1c(=O)[nH]c2cc(C(=O)N3CCN(c4cccc(Cl)c4)CC3)ccc2c1=O | inconclusive: 8.91 µM [inhibitor, full curve, poor fit] | –
44 | Cc1ccc(/C=c2/sc3nnc(-c4ccccc4Cl)n3c2=O)o1 | active: 14.1 µM | –
45 | COc1ccc(CCNC(=O)c2ccc3c(c2)nc2n3CCOC2)cc1OC | – | inactive: -11.1%
46 | O=[N+]([O-])c1cc(CN2CCOCC2)c2cccnc2c1O | active: 8.91 µM | –

Row | SMILES | Potency | activity change, negative = inhibition
47 | COc1ccc(N2CC(C(=O)Nc3nnc(SCC(=O)N4CCOCC4)s3)CC2=O)cc1 (stereo not drawn) | inconclusive: 50.1 µM [inhibitor, partial curve] | –
48 | CCOC(=O)CSc1nnc(-c2cc(OC)c(OC)c(OC)c2)o1 | – | inactive: -4.04%
49 | COc1ccc(CNC(=O)Cc2c(C)c3ccc(O)cc3oc2=O)cc1 | – | inactive: -13.7%
50 | Cn1c(=O)n(C)c2cc(/C=N/NC(=S)NCc3ccccc3)ccc21 | inconclusive: 15.8 µM [inhibitor, partial curve, poor fit] | –
51 | CCOc1ccc2c(c1)C(NC(C)=O)C(=O)N2CCN1CCOCC1 (stereo not drawn) | inconclusive: 79.4 µM [inhibitor, partial curve] | –
52 | C=C(C)C(=O)OC1(C(F)(F)F)Oc2cc(C)ccc2NC1=O (stereo not drawn) | inconclusive: 44.7 µM [inhibitor, partial curve, poor fit] | –
53 | COc1ccc(OC)c(N=c2ssnc2Cl)c1 | – | inactive: -9.65%
54 | CCOC(=O)c1c(NC(=O)CC2SC(N)=NC2=O)sc2c1CCC(C)C2 (stereo not drawn) | inconclusive: 39.8 µM [inhibitor, partial curve, poor fit] | –
55 | CCc1nnc(NC(=O)c2ccc(-c3ccccc3Cl)o2)s1 | inconclusive: 31.6 µM [inhibitor, partial curve] | –
56 | COc1cccc(/C=C2/C(=O)NN(c3ccc(Br)cc3)C2=O)c1O | active: 79.4 µM | –
57 | CCc1ccc(-c2csc(NC(=O)C3CC(=O)N(c4ccc5c(c4)OCCO5)C3)n2)cc1 (stereo not drawn) | – | inactive: -18.2%
58 | N#Cc1ccsc1NC(=O)COC(=O)c1ccc(Br)o1 | inconclusive: 56.2 µM [inhibitor, partial curve, poor fit] | –
59 | CC(C)c1ccc(NS(=O)(=O)c2ccc3[nH]cc(C(=O)NC4CCCCC4)c(=O)c3c2)cc1 | active: 35.5 µM | –
60 | O=C(CCl)N1CCN2C(=O)c3ccccc3C12c1ccc(Cl)cc1 (stereo not drawn) | active: 79.4 µM | –
61 | CO/C=C\C=C/c1nnn(-c2ccc(Cl)cc2)n1 | inconclusive: 100 µM [inhibitor, single point] | –
62 | CCc1cc[n+](-c2nc([O-])sc2C=O)cc1 | inconclusive: 31.6 µM [inhibitor, partial curve, poor fit] | –
63 | O=C(O)c1cccc(NC(=S)N/N=C/c2ccccc2OCc2ccc(Br)cc2)c1 | inconclusive: 56.2 µM [inhibitor, partial curve, poor fit] | –
64 | CCc1cc(SC#N)cc(C)c1NC(=O)CCl | inconclusive: 79.4 µM [inhibitor, partial curve, poor fit] | –
65 | CN1CCN(CC(=O)N2c3ccccc3C(=O)Nc3cccnc32)CC1 | inconclusive: 0.178 µM [inhibitor, full curve, poor fit] | –
66 | CCOCCCNc1nc2c(-c3ccccc3)nnn2c2ccccc12 | inconclusive: 79.4 µM [inhibitor, partial curve, poor fit] | –
67 | COc1ccccc1OCCNC(=O)Cc1ccc(Cl)c(Cl)c1 | inconclusive: 28.2 µM [inhibitor, partial curve, poor fit] | –
68 | OCCN(CCCn1c(C(F)(F)F)nc2ccccc21)c1nc(CN2CCCCC2)cs1 | – | inactive: -9.65%
